The assay relates to green peach aphid, Myzus persicae. Description: 96-well plate filter paper disk test against green peach aphid, score rating. As to conditions: Table 16; 4 is no dead insects, 1 is 100% kill. The protocol: AQ713 was tested in medium 4 using batches of AQ713 grown twice in two different 10 liter fermenters and twice in one 400 liter fermenters for 48 hours. The green peach aphid, Myzus persicae was tested in addition to corn rootworm and armyworm. Both whole broth (WB) and supernatant (S) were tested from one of the 400 liter batches. To test green peach aphid, 40 microliters of the sample of AQ713 were pipetted onto a small filter paper disk at the bottom of each of 8 wells in a 96-well plate. The plates are then dried under a fume hood for 1-2 hours. Aphids are added to each well by gently tapping the aphids off of cabbage leaves. The bottom of the well was covered with aphids. When a column of wells is filled, the plate is capped with a cap strip to keep the aphids in place. The test plates are incubated at 20-22° C. The test is rated in 48 hours, using a microscope to count the number of aphids alive and dead. The wells are then given a score on a scale from 1 to 4 as with the other insects (4 is no dead insects, 1 is 100% kill).

SMILES strings stand for the structures. Several values for one entry are separate records, joined by “and”; a condition that tells them apart may be missing. Equal entries are not always repeated. Starred links: 1 amine or outer side, 2 acyl side, 3 side chain; linkers in the order of their positions; H or OH if unused. Positions of bridges follow the written chain, without caps; N, C: chain ends. Non-standard residues stand in square brackets, D forms with d. Residues, ends and D or L forms follow the SMILES beside them. X1 = CC(C)CCCCCCCCC[C@H](CC(=O)[*:1])O[*:2]

Take `CC(C)CCCCCCCCC[C@@H]1CC(=O)N[C@@H](CCC(=O)O)C(=O)N[C@@H](CC(C)C)C(=O)N[C@H](CC(C)C)C(=O)N[C@@H](C(C)C)C(=O)N[C@@H](CC(=O)O)C(=O)N[C@H](CC(C)C)C(=O)N[C@@H](CC(C)C)C(=O)O1` [Surfactin] (EL[dL]VD[dL]L; linker N-C via X1): the “Activity score, Green Peach aphid” value is 2.0 and 3.0.
